# From PubChem BioAssay AID588855 (National Center for Advancing Translational Sciences (NCATS), 2011)
# Out of some 410,000 compounds screened, about 5,000 (1.2%) were called active. The inconclusive results got no clear call from the source; some entries with a clear call stand among them for comparison. The call rests on the fitted dose curve; in most records, active means well fitted inhibition curve with a large enough effect; inconclusive means small, poorly fitted or top-dose-only effect; inactive means no such curve, though single readings can be large or run the other way. A potency beside an inconclusive call is a rough fit, not a confirmed value.
# Assay: qHTS for Inhibitors of TGF-b; further: nearly all actives have a fitted effect of over 65% in size
# Conditions: HepG2 CAGA-GFP TGF-b/SMAD3 reporter, GFP fluorescence, 18 h, TGF-beta stimulated, 500 pg/mL final; series mostly up to 46.1 µM
# Method in brief: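 Smad-responsive CAGA-GFP expression was quantified in HEPG2 cells exposed to compounds and 500 pg/mL final TGF-beta for 18 h at 37 degrees C; unstimulated wells defined full inhibition.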
# Potency means the concentration at half of the fitted maximal effect; tags describe the fitted curve by direction and shape.
row,Structure (SMILES),Potency
1,O=C1N(Cc2ccc(F)cc2)CCN1c1ccc(F)cc1,inactive
2,C=CCn1c(O)c(C2=c3ccccc3=NC2=O)c2ccccc21,"inconclusive: 35.5 µM [inhibitor, single point]"
3,O=S(=O)(Nc1cc(Cl)ccc1-n1cncn1)c1cc(Br)ccc1Br,active: 10 µM
4,Fc1ccc2cnc(-c3ccccc3)c(-c3cccc(C(F)(F)F)c3)c2c1,"inconclusive: 35.5 µM [inhibitor, single point]"
5,O=C(N/N=C/c1ccc([N+](=O)[O-])o1)c1ccccc1-n1cccc1,active: 10 µM
6,COc1cccc(/C=N/NC(=O)c2[nH]nc3c2CCc2ccccc2-3)c1O,"inconclusive: 6.31 µM [inhibitor, single point]"
7,COC(=O)C(Cc1ccc(O)cc1)NC(=O)C12CC3CC(CC(C3)C1)C2 (configuration not stated),"inconclusive: 35.5 µM [inhibitor, single point]"
8,COc1ccc(S(=O)(=O)N(CCc2ccccc2)CC(=O)NCc2ccc(C)cc2)cc1,"inconclusive: 17.8 µM [inhibitor, single point]"
9,Cc1cccc(Cc2c(C)nc3c(C(=O)N4CCN(Cc5ccc6c(c5)OCO6)CC4)cnn3c2C)c1,"inconclusive: 15.8 µM [inhibitor, single point]"
10,CC(O)Cc1cn(CC(=O)N2CCN(C(=O)OC(C)(C)C)CC2)nn1 (configuration not stated),"inconclusive: 8.91 µM [inhibitor, partial curve, poor fit]"
11,O=C(Nc1nc2ccccc2s1)c1ccccc1,inactive
12,C=C(c1ccc(O)cc1)c1ccc(O)cc1,"inconclusive: 35.5 µM [inhibitor, single point]"
13,Cc1cc(F)ccc1S(=O)(=O)Nc1c(C)n(C)n(-c2ccccc2)c1=O,"inconclusive: 11.2 µM [inhibitor, partial curve]"
14,Cc1ccc(CSc2nc3cccnc3n2Cc2nc(-c3ccccc3F)oc2C)cc1,"inconclusive: 35.5 µM [inhibitor, single point]"
15,CCOc1ccc(CNC(=O)CN2C(=O)CSc3c2c(C)nn3-c2ccccc2)cc1,"inconclusive: 0.224 µM [inhibitor, full curve, poor fit]"
16,COc1ccc(CN2CC[C@H]3C=CC[C@@H](C(=O)Nc4ccc(Cl)cc4Cl)[C@H]3C2=O)cc1OC,"inconclusive: 11.2 µM [inhibitor, partial curve, poor fit]"
17,O=C(CN1CCN(S(=O)(=O)c2ccc(Br)cc2)CC1)N/N=C/c1ccccc1C(=O)O,"inconclusive: 4.47 µM [inhibitor, full curve]"
18,CCOC(=O)C1=CN(Cc2cccc(F)c2)S(=O)(=O)NC1c1ccc(Br)cc1F (configuration not stated),"inconclusive: 14.1 µM [inhibitor, single point]"
19,O=C(C1CC1)N1CCc2cc(Br)cc(S(=O)(=O)Nc3ccc(C(F)(F)F)cc3)c21,"inconclusive: 35.5 µM [inhibitor, single point]"
20,CS(=O)(=O)N(CC(=O)N1CCCC1)c1ccc(Cl)cc1Cl,"inconclusive: 10 µM [inhibitor, single point]"
21,CC1(C)C2CCC1(CS(=O)(=O)N1CCOCC1)C(=O)C2 (configuration not stated),inactive

row,Structure (SMILES),Potency
1,CCCCCCCCCCCCCCCC[n+]1ccc(/C=N/O)cc1,"inconclusive: 22.4 µM [inhibitor, single point]"
2,CCCN1CCC(=O)N([C@H](CSc2ccc(OC)cc2)Cc2ccccc2)CC1,"inconclusive: 12.6 µM [inhibitor, single point]"
3,CC(NC(C)c1ccccc1Cl)C(=O)Nc1cccc(S(=O)(=O)N2CCCCC2)c1 (configuration not stated),"inconclusive: 35.5 µM [inhibitor, single point]"
4,CCOC(=O)CCCNC(=O)CCNC(=O)c1ccc(OCC)cc1,"inconclusive: 0.112 µM [inhibitor, full curve, poor fit]"
5,O=C(NCc1ccc2c(c1)OCO2)c1ccc(CS(=O)Cc2cccc(Cl)c2)o1 (configuration not stated),inactive
6,Nc1nc2ccccc2n1C(=O)CCc1ccccc1,inactive
7,CCCCN(c1ccccc1)S(=O)(=O)c1cc2c3c(c1)C(C)C(=O)N3CCC2 (configuration not stated),"inconclusive: 35.5 µM [inhibitor, single point]"
8,O=C1N/C(=C\c2ccsc2)C(=O)N1Cc1ccc(F)cc1,"inconclusive: 35.5 µM [inhibitor, single point]"
9,Cc1cc2oc3c(c(=O)c2cc1C)C(c1cccc(Br)c1)N(Cc1ccco1)C3=O (configuration not stated),"inconclusive: 14.1 µM [inhibitor, single point]"
10,O=C(Cc1ccccc1)NC1c2ccccc2-c2ccccc21,"inconclusive: 5.62 µM [inhibitor, full curve, poor fit]"
11,CCc1ccccc1NC(=O)CN1CCN(CC(=O)Nc2ccc(-c3ccccc3)cc2)CC1,inactive
12,CCOC(=O)c1sc(=S)n(C)c1NC(=O)c1ccccc1,inactive
13,COCCOc1cc(NC(=O)c2sccc2Oc2ccc([N+](=O)[O-])cc2F)c(Cl)cc1Cl,"inconclusive: 22.4 µM [inhibitor, partial curve, poor fit]"
14,CC1(C(=O)Nc2ccc(Cl)c(C(F)(F)F)c2)Cc2c(-c3ccccc3)ccnc2O1 (configuration not stated),"inconclusive: 28.2 µM [inhibitor, partial curve, poor fit]"
15,CCCC1=Nc2cc(C(=O)NCCN3CCCC3)ccc2Sc2ccccc21,"inconclusive: 35.5 µM [inhibitor, single point]"
16,Cc1cccc(NC(=O)c2cc3c(C)nn(-c4ccccc4)c3s2)c1,"inconclusive: 20 µM [inhibitor, partial curve, poor fit]"
17,O=c1[nH]c(N/N=C/c2cc3c(cc2[N+](=O)[O-])OCO3)nc2ccccc12,inactive
18,Cc1ccc(C(C)C)c(OCCNC(=O)c2ccccc2O)c1,"inconclusive: 6.31 µM [inhibitor, full curve, poor fit]"
19,CC(=O)c1cccc(NC(=O)c2ccccc2N(C)S(=O)(=O)c2ccc(C)cc2)c1,"inconclusive: 35.5 µM [inhibitor, single point]"
20,COc1ccccc1NC(=O)Cc1nc(CCl)cs1,inactive
21,CCOc1ccc2[nH]c(=O)c(CN(Cc3cccs3)Cc3nnnn3C(C)(C)CC)cc2c1,"inconclusive: 35.5 µM [inhibitor, single point]"
